Experimental data: the supplement of paper PMC12632987
In all, about 1,800 sequences were measured (“median log2 fold change of GCK-ALFA target abundance (FLAG IP / Myc IP barcode read proportion)”: median about 0.14, lowest 2% from about -0.84 on). The list shows a part of the results.

T1: TRAF2, Q12933
T1 chain: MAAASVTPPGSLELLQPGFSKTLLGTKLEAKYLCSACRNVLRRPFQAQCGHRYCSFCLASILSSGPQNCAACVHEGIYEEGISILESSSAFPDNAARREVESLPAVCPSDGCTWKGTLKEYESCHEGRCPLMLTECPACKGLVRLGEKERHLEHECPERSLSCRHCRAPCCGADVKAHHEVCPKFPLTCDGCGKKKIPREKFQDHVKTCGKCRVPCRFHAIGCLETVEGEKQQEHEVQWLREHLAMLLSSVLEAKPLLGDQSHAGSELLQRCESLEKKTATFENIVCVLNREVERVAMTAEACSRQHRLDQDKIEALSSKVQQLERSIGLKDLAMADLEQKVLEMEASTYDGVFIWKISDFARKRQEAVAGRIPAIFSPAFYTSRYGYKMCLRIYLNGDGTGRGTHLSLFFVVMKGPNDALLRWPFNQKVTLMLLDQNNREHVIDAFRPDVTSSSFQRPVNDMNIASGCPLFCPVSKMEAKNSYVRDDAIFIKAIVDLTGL

B1: traf2_out_14_149_1250 (protein)
chain: SETEKRKEALKKAAELMKEIIEILEKALAAGSTEVDKEKLKKLLEEARKILKEQGFVLGHLLAMEEMLKTTKEWTLEDIEAFLEEARRARDSLEVLAEML
B2: traf2_out_18_147_1811 (protein)
chain: SWREAIDKMADLSEKIRELMKEIAKLTGEEEETKKLEDILTSTSVSLEEKEKAVEKAKKKYKAEGKEEAVKLLEEALELSKERLEAAKKANELINKEEAE
B3: traf2_out_17_162_1546 (protein)
chain: EELERRLRELEERLRRLEEEARRLREKLPDLPKLSKEELTDLLVEASEARREALELAEEIEELREEIGEERAEELRERARRIAEELQRIANAIYKEILKK
B4: traf2_out_11_131_658 (protein)
chain: MDAVATAESVAERVAARLALAETLSPEERHRLALQALDTIEAAAEYLREHVAEMSREDVERAVEILRAAVEAVLALDPSVAPEAEEVRRALEELERAARE
B5: traf2_out_15_48_1363 (protein)
chain: STAALQATARQVNDLFDATMREVAERLRELLPRVSPENRPLFERAIHLASVNGTIREVIALLEELAERVSPEVAAEVRELIERLRETRREASRLMSETLK
B6: traf2_out_11_169_812 (protein)
chain: EEKEKNRKINDFALELNDEAKKELLKHAKALAKKAGLDVAEVEAIFEKHKNSSLSAVAAALIAYFKSKGKEEEAAAVLAKYEELKEEINKKVTEKIKELE
B7: traf2_out_13_95_1207 (protein)
chain: EEEKTKKLREVTNEIADDLIDFVEELAEEIEKATGRAEYRDEILRTLRRYGVRAAIALIREYAKADPEHAAVYEKAAAEAEAKVREAGKEMAKKIKEIEE
B8: traf2_out_17_178_1707 (protein)
chain: TKEEARKRISEATDRMIDLAEAAAARLLALAEESGSLSPEELAALREARRLGSARTTLALMRRAIPRSPRAEEVRALVDEFEAEYRRLSAEIAAALEKYE
B9: traf2_out_17_162_1619 (protein)
chain: KSIEEILEELKRELEELEKKLKELEEKLKEIEKLSKEELTDLLVEASEARRRAREAIERIKELEGEIPEEVYEELKERFEELAERFQRIANIFYKKLEEL
B10: traf2_out_14_149_1255 (protein)
chain: SETEKKRKALEEARALMEEIAAILEAALAAGSTEVDRERLRALVEEARAILREQGFVLGHLLAIEEMLATTEEFTLADIEALLAEVRRAAESLAVLAEML
B11: traf2_out_18_3_1912 (protein)
chain: SEEERKKVSDEIDKLVDDATAKAREALARGKAEHPEFAAEFDRLEADLAAGAGPFGILEALAELFKKAGDEAAAAELEAFLAETRKKLQELVDEYEKLLK
B12: traf2_out_15_48_1370 (protein)
chain: DAAAYRAAAVAAADAIIATKDAVRDKVKELAKVASPEVKKKLDAVADLIDAGAGTRDIIAALKEAAKVASPELKKKLEALAAELEAARRAASATMAAMEK
B13: traf2_out_18_3_1936 (protein)
chain: KEEELKKVSEEIDKIVDEAEAKTREALAELKAEKPELAARAEELEALLDAGAGPFGILEAVAELYKEAGLEEKAKEIEEFLKEKRKEMQKLVDEYEKLRK
B14: traf2_out_16_104_1401 (protein)
chain: EAAKRAEFEAIIARLEAIAEELQKIANTLYKLYEKADPATRVALSDALVAASAARRAALAAAEEARRALETGGDLEAARAALAKAEADAAAVKATAAALA
B15: traf2_out_17_162_1586 (protein)
chain: AALEEELARIEEELERLEEELRRLEEKAKRIDELSKEELTDLLVEASEARRRARELLERVRRLRPRLDPETYERLATRAEELAERFQRLANIFYKELEKK
B16: traf2_out_11_169_816 (protein)
chain: EEQKKNREINDFALELNDKAKKELLEHAKKLAKEAGLDVAEVEAIFAKHKNSSLSAVAAALVEYFRSKGKEEEAAAVLAKYEELKEKINKEVTKKIKELE
B17: traf2_out_11_169_840 (protein)
chain: EEAEKNRKINDKALELNDKGKEELKKHALALAKAAGLDPAEIEKIFEENKGKSLSYIAGSLIAYFNSKGKADVAADILAKYEEIKDRINKEGTAFIKSLE
B18: traf2_out_11_155_751 (protein)
chain: EEKIKLLNEMNDKIMEIFDEARKKVDELLEKTAKEHPEHKEKIEKKKKETKNFSPKTYMLTMLELLKELGLEEEAKKVEEIIKETQKKASEIVIETEKKL
B19: traf2_out_11_169_858 (protein)
chain: EEKEFNRKLIDKALELNDKAKKELEEFALKLAKEAGLDVEEVKKIFEENKNKSLSALASALIKYFKSKGEEKNAQAILEKHEELKDKINKEMSAFIKELK
B20: traf2_out_11_155_690 (protein)
chain: TKERELNNELVDRNLAVGDALKAQIDAIAAAAAAAHPAHAAEIEKVAADAAKYSARTYAGIMAATFERLGLADEAAQVRALLAAAQAERNAILKEIEAKK
B21: traf2_out_17_162_1539 (protein)
chain: SPTEERLEELERRLERLEEELKKLKEKSEKLDELSKEEISDLLVEVSELRREALRLAEELRRLAEETGSPRARELEERAERLAEELQRIANKIYKELEKK
B22: traf2_out_1_27_1009 (protein)
chain: SDAEFRALLAEADRALGSLSPEEALAAAAEAVRRALELGIGEARHLAVVLILSQADDELAEALLEAIRAVLREAGVSEEEIAEIERRAESGRARLKKALA
B23: traf2_out_6_156_2406 (protein)
chain: MIEEIEKETLEEIKELLKKLAAASEEKKIAYISKIAGTFYRGLQKLREAGASVEELEEFGKRVLEKIKEWLEELGLDQDTKDLILSSLNAVYDVALEEAK
B24: traf2_out_13_95_1186 (protein)
chain: EEEKTKKLREETNKIADKLIDTTEELAKEIEKETGDPTYKERILSALNRYGVRAAIHLIKELAKENPEYKEIFEEAAEKLEAARREAGKEVAKIEKEIEE
B25: traf2_out_20_3_2236 (protein)
chain: EELKKKAKEALEEARKLLEQAEPLLEPEDAAKLRELLEKAEEYFETDYKDALVELSALKRAALAAAERARAAGDEETAALLEELADATNKAMHYIYLIIE
B26: traf2_out_17_178_1708 (protein)
chain: TKEEARKRISEATDEMIDLAEEAAARLLEIAEREGSLSPEELAALRRARRLGSARTTIALMERAIPRLRSAEEVRALLEELKARYRELSKEIAEALEKYE
B27: traf2_out_18_3_1945 (protein)
chain: KEEKLKELSEKIDKVYDDAAEYILKKAKELAEKDPRFKPALEEVEKLIKQGHLFGQLANTLIDHLKKLGYEEEAAEVEAYYSEKSKEISKLLDEYEKIRK
B28: traf2_out_14_17_1292 (protein)
chain: EIIKELEKIAKTAKELAKKLPELKLELGQLARKAESALVLAEMYEEDPSYKPELLQALKNLLKLAKEVAEKVKPISEEAVKELNKIAETAKKILEKVEKE
B29: traf2_out_16_171_1442 (protein)
chain: MEKEKEEELKKEIEEEAARLIARMETAVEMTPLISKETGLTVEQIAAGFRSTMTDRIAAFREHFLKKAADMSEEVKEFIEEQVARLEAALDAAVAAILAK

Molecular target: T1, TRAF2, Q12933
Assay: median log2 fold change of GCK-ALFA target abundance (FLAG IP / Myc IP barcode read proportion) (log2 ratio); each designed protein is fused to an ALFA-tag nanobody in HEK293 cells to bring the named protein to FLAG-tagged glucokinase (GCK); Myc marks an untargeted standard; higher = target protein stabilised (more abundant)
Details: target protein: 3xFLAG-MCP-GCK-ALFA reporter; HEK293 landing pad (RPLP)
Method in brief: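 Sequencing of reverse-transcribed, amplified circular RNA barcodes from anti-FLAG and anti-Myc immunoprecipitates provided the readout for an ALFA-nanobody-fused binder library recombined into HEK293 landing-pad cells. Those cells were induced with 2 μg mL^−1 doxycycline, transfected with a plasmid expressing a FLAG-tagged target and a Myc-tagged standard, and lysed after 48 h. Target abundance is the per-binder median log2 ratio of FLAG to Myc barcode read proportions. Only barcodes at a proportion of ≥10^−7 in both replicates and binders with ≥3 barcodes per replicate were kept, with a 10^−6 pseudocount added before the two replicates were pooled.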

Binder | median log2 fold change
B1 | 0.0577
B2 | 0.245
B3 | 0.213
B4 | 0.223
B5 | 0.187
B6 | 0.302
B7 | -0.0765
B8 | -0.126
B9 | 0.115
B10 | -0.105
B11 | 0.142
B12 | 0.205
B13 | 0.263
B14 | 0.184
B15 | 0.101
B16 | 0.614
B17 | 0.0869
B18 | 0.0172
B19 | -0.248
B20 | 0.0844
B21 | 0.204
B22 | 0.0103
B23 | 0.0253
B24 | 0.217
B25 | 0.298
B26 | -0.184
B27 | -0.138
B28 | 0.148
B29 | 0.155
